This is an account of results in patent US20260193238A1, “PHARMACEUTICAL COMPOUNDS AS PARP7 AND/OR PARP1 INHIBITORS” (Duke Street Bio Limited, priority 2022, published 2026).

As usually defined, the IC50 is the concentration at which inhibition is half-maximal. Read a low IC50 as inhibition by little substance.

Structures are written as SMILES.

The first experiment addresses T1, PARP7 (amino acids 456-657) (Homo sapiens, UniProt Q7Z3E1).
T1 sequence (Q7Z3E1 456-657): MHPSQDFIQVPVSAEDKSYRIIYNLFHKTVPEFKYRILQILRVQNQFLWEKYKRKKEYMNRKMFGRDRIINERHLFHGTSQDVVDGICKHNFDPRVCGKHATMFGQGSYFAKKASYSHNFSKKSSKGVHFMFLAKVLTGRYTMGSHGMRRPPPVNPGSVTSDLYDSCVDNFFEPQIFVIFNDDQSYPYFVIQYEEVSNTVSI
Nature of the experiment: PARP7 biochemical DELFIA assay (auto-MARylation). The conditions noted are these: Table 1.
`O=C(CCN1CCCC(c2c[nH]c(=O)c(C(F)(F)F)c2)C1)N1CCN(c2ncc(C(F)(F)F)cn2)CC1` (single isomer, unassigned) [Compound 25a] registered an IC50 of 10 to 100 nM. Regarding `O=C(CCN1CCCC(c2c[nH]c(=O)c(C(F)(F)F)c2)C1)N1CCN(c2ncc(C(F)(F)F)cn2)CC1` (single isomer, unassigned) [Compound 25b], the IC50 fell in the range of 100 to 1000 nM. In turn, `O=C(CCN1CCCC(c2cc(C(F)(F)F)c(=O)[nH]n2)C1)N1CCN(c2ncc(C(F)(F)F)s2)CC1` (single isomer, unassigned) [Compound 27a] yielded an IC50 of 1000 to 10000 nM.

Compound `O=C(CCN1CCCC(c2cc(C(F)(F)F)c(=O)[nH]n2)C1)N1CCN(c2ncc(C(F)(F)F)s2)CC1` (single isomer, unassigned) [Compound 27b] had an IC50 of 10 to 100 nM. `CNC(=O)c1ccc(N2CCN(C(=O)CCN3CCCC(c4cc(C(F)(F)F)c(=O)[nH]n4)C3)CC2)nc1` (single isomer, unassigned) [Compound 28a] registered an IC50 of 1000 to 10000 nM.

`O=C(CN1CCN(c2ncc(C(F)(F)F)cn2)CC1)N1CCCC1c1cc(C(F)(F)F)c(=O)[nH]n1` (single isomer, unassigned) [Compound 32a] registered an IC50 of 100 to 1000 nM.

`O=C(CN1CCN(c2ncc(C(F)(F)F)cn2)CC1)N1CCCC1c1cc(C(F)(F)F)c(=O)[nH]n1` (single isomer, unassigned) [Compound 32b] registered an IC50 of more than 10000 nM.

The experiment is the same for the next values; noted with them: Table 1A.
Compound `O=C(CN1CCCC1c1cc(C(F)(F)F)c(=O)[nH]n1)NC1CCN(c2ncc(C(F)(F)F)cn2)CC1` (single isomer, unassigned) [Compound 33b] came in with an IC50 of 100 to 1000 nM. Same read-out and setting: to `CN(C(=O)CN1CCCC1c1cc(C(F)(F)F)c(=O)[nH]n1)C1CCN(c2ncc(C(F)(F)F)cn2)CC1` (single isomer, unassigned) [Compound 34b] belongs 1000 to 10000 nM; to `O=C(CN1CCCC1c1cc(C(F)(F)F)c(=O)[nH]n1)N1CCN(c2ncc(Cl)cn2)CC1` (single isomer, unassigned) [Compound 35a], not above 10 nM; to `O=C(CN1CCCC1c1cc(C(F)(F)F)c(=O)[nH]n1)N1CCN(c2ncc(Cl)cn2)CC1` (single isomer, unassigned) [Compound 35b], 100 to 1000 nM. As to `N#Cc1cnc(N2CCN(C(=O)CN3CCCC3c3cc(C(F)(F)F)c(=O)[nH]n3)CC2)nc1` (single isomer, unassigned) [Compound 36a], the IC50 was not above 10 nM.

In turn, `CNC(=O)c1ccc(N2CCN(C(=O)CN3CCCC3c3cc(C(F)(F)F)c(=O)[nH]n3)CC2)cn1` (single isomer, unassigned) [Compound 37b] returned an IC50 of 1000 to 10000 nM. The same measure, in the same setting: to `CCc1cc(C2CCCN2CC(=O)N2CCN(c3ncc(C(F)(F)F)cn3)CC2)n[nH]c1=O` (single isomer, unassigned) [Compound 40a] belongs not above 10 nM; to `CCc1cc(C2CCCN2CC(=O)N2CCN(c3ncc(C(F)(F)F)cn3)CC2)n[nH]c1=O` (single isomer, unassigned) [Compound 40b], 1000 to 10000 nM; to `O=C(CN1CCCC1c1cc(C(F)(F)F)c(=O)[nH]n1)N1CCN(c2ccc(Cl)cn2)CC1` (single isomer, unassigned) [Compound 41a], not above 10 nM. Still for that read-out and setting: to `O=C(CN1CCCC1c1cc(C(F)(F)F)c(=O)[nH]n1)N1CCN(c2ccc(Cl)cn2)CC1` (single isomer, unassigned) [Compound 41b] belongs 1000 to 10000 nM; to `O=C(CN1CCCC1c1cc(C(F)(F)F)c(=O)[nH]n1)N1CCN(c2ccc(C(F)(F)F)cn2)CC1` (single isomer, unassigned) [Compound 42a], 100 to 1000 nM; to `O=C(CN1CCCC1c1cc(C(F)(F)F)c(=O)[nH]n1)N1CCN(c2ccc(C(F)(F)F)cn2)CC1` (single isomer, unassigned) [Compound 42b], not above 10 nM. On the same count and under the same terms, to `O=C(CN1CCCC1c1cc(C(F)(F)F)c(=O)[nH]n1)N1CCN(c2ncc(F)cn2)CC1` (single isomer, unassigned) [Compound 43a] belongs not above 10 nM; to `O=C(CN1CCCC1c1cc(C(F)(F)F)c(=O)[nH]n1)N1CCN(c2ncc(F)cn2)CC1` (single isomer, unassigned) [Compound 43b], 1000 to 10000 nM; to `O=C(CN1CCCC1c1cc(C(F)(F)F)c(=O)[nH]n1)N1CCN(c2cnc(C(F)(F)F)cn2)CC1` (single isomer, unassigned) [Compound 45a], not above 10 nM. `O=C(CN1CCCC1c1cc(C(F)(F)F)c(=O)[nH]n1)N1CCN(c2ccc(F)cn2)CC1` (single isomer, unassigned) [Compound 46a] showed an IC50 not above 10 nM.

For `O=C(CN1CCCC1c1cc(C(F)(F)F)c(=O)[nH]n1)N1CCN(c2ccc(F)cn2)CC1` (single isomer, unassigned) [Compound 46b], the IC50 is 1000 to 10000 nM. On the same count and under the same terms, to `CNC(=O)c1cnc(N2CCN(C(=O)CN3CCCC3c3cc(C(F)(F)F)c(=O)[nH]n3)CC2)cn1` (single isomer, unassigned) [Compound 54a] belongs not above 10 nM; to `CNC(=O)c1ccc(N2CCN(C(=O)CN3CCCC3c3cc(C(F)(F)F)c(=O)[nH]n3)CC2)nc1` (single isomer, unassigned) [Compound 55a], 1000 to 10000 nM; to `CNC(=O)c1ccc(N2CCN(C(=O)CN3CCCC3c3cc(C(F)(F)F)c(=O)[nH]n3)CC2)nc1` (single isomer, unassigned) [Compound 55b], not above 10 nM. `CNC(=O)c1ccc(N2CCN(C(=O)CCN3CCC3c3cc(C(F)(F)F)c(=O)[nH]n3)CC2)cn1` (single isomer, unassigned) [Compound 56b] registered an IC50 of 1000 to 10000 nM. The same measure, in the same setting: for `CCc1cc(C2CCCN2CC(=O)N2CCN(c3ncc(C(F)(F)F)cn3)CC2)c[nH]c1=O` (single isomer, unassigned) [Compound 57b] the value was 100 to 1000 nM; for `O=C(CN1CCCC1c1c[nH]c(=O)c(C(F)(F)F)c1)N1CCN(c2ncc(C(F)(F)F)cn2)CC1` (single isomer, unassigned) [Compound 60a, 5-(1-(2-oxo-2-(4-(5-(trifluoromethyl)pyrimidin-2-yl)piperazin-1-yl)ethyl)pyrrolidin-2-yl)-3-(trifluoromethyl)pyridin-2(1H)-one], not above 10 nM; for `O=C(CN1CCCC1c1c[nH]c(=O)c(C(F)(F)F)c1)N1CCN(c2ncc(C(F)(F)F)cn2)CC1` (single isomer, unassigned) [Compound 60b, 5-(1-(2-oxo-2-(4-(5-(trifluoromethyl)pyrimidin-2-yl)piperazin-1-yl)ethyl)pyrrolidin-2-yl)-3-(trifluoromethyl)pyridin-2(1H)-one], 10 to 100 nM. The same measure, in the same setting: to `O=C(CN1CCN(c2ncc(C(F)(F)F)cn2)CC1)N1CCCC1c1c[nH]c(=O)c(C(F)(F)F)c1` (single isomer, unassigned) [Compound 63a] belongs 10 to 100 nM; to `O=C(CN1CCCCC1c1cc(C(F)(F)F)c(=O)[nH]n1)N1CCN(c2ncc(C(F)(F)F)cn2)CC1` (single isomer, unassigned) [Compound 66a], 100 to 1000 nM. On to `O=C(CN1CCCCC1c1cc(C(F)(F)F)c(=O)[nH]n1)N1CCN(c2ncc(C(F)(F)F)cn2)CC1` (single isomer, unassigned) [Compound 66b], for which the half-maximal inhibitory concentration (IC50) lay in the range of 1000 to 10000 nM. The same measure, in the same setting: to `O=C(CN1CCCC1c1cc(C(F)(F)F)c(=O)[nH]n1)N1CCN(c2ncc(C3CC3)cn2)CC1` (single isomer, unassigned) [Compound 69a] belongs not above 10 nM; to `O=C(CN1CCCC1c1cc(C(F)(F)F)c(=O)[nH]n1)N1CCN(c2ncc(C3CC3)cn2)CC1` (single isomer, unassigned) [Compound 69b], 1000 to 10000 nM. Same read-out and setting: for `O=C(CN1CCCC1c1cc(C(F)(F)F)c(=O)[nH]n1)N1CCC(c2ncc(C(F)(F)F)cn2)CC1` (single isomer, unassigned) [Compound 70a] the value was 10 to 100 nM; for `N#Cc1ccc(N2CCN(C(=O)CN3CCCC3c3cc(C(F)(F)F)c(=O)[nH]n3)CC2)cc1` (single isomer, unassigned) [Compound 71b], 10 to 100 nM; for `O=C(CN1CCCC1c1cc(C(F)(F)F)c(=O)[nH]n1)N1CCN(c2ncc(OC(F)(F)F)cn2)CC1` (single isomer, unassigned) [Compound 72b], not above 10 nM.

For `CNC(=O)c1ccc(N2CCN(C(=O)CCN3CCCC3c3c[nH]c(=O)c(C(F)(F)F)c3)CC2)cn1` (single isomer, unassigned) [Compound 73b], the half-maximal inhibitory concentration (IC50) was in the range of 1000 to 10000 nM.

For `O=C(CN1CCCC1c1c[nH]c(=O)c(C(F)(F)F)c1)N1CCN(c2ncc(Cl)cn2)CC1` (single isomer, unassigned) [Compound 74a], the IC50 is not above 10 nM. Same read-out and setting: to `O=C(CN1CCCC1c1c[nH]c(=O)c(C(F)(F)F)c1)N1CCN(c2ncc(Cl)cn2)CC1` (single isomer, unassigned) [Compound 74b] belongs 100 to 1000 nM; to `O=C(CN1CCCC1c1cc(C(F)(F)F)c(=O)[nH]n1)C1CCN(c2ncc(C(F)(F)F)cn2)CC1` (single isomer, unassigned) [Compound 75a], not above 10 nM; to `O=C(CN1CCCC1c1cc(C(F)(F)F)c(=O)[nH]n1)C1CCN(c2ncc(C(F)(F)F)cn2)CC1` (single isomer, unassigned) [Compound 75b], 1000 to 10000 nM. `N#Cc1cnc(N2CCN(C(=O)CN3CCCC3c3c[nH]c(=O)c(C(F)(F)F)c3)CC2)nc1` (single isomer, unassigned) [Compound 76a]: the IC50 fell in the range of 100 to 1000 nM.

`N#Cc1cnc(N2CCN(C(=O)CN3CCCC3c3c[nH]c(=O)c(C(F)(F)F)c3)CC2)nc1` (single isomer, unassigned) [Compound 76b] displayed an IC50 not above 10 nM. The compound `N#Cc1ccc(N2CCN(C(=O)CN3CCCC3c3c[nH]c(=O)c(C(F)(F)F)c3)CC2)nc1` (single isomer, unassigned) [Compound 77a] returned a half-maximal inhibitory concentration (IC50) of 100 to 1000 nM.

In turn, `N#Cc1ccc(N2CCN(C(=O)CN3CCCC3c3c[nH]c(=O)c(C(F)(F)F)c3)CC2)nc1` (single isomer, unassigned) [Compound 77b] returned a concentration for half-maximal inhibition (IC50) not above 10 nM.
